{"source": "paper PMC5620161", "about": "“Remarkably similar CTLA-4 binding properties of therapeutic ipilimumab and tremelimumab antibodies” (Oncotarget, 2017)", "proteins": {"B1": {"name": "ectodomain of human CTLA-4 ([…]) (domain or fragment)", "chain": "not shown", "notes": "CTLA-4, human, ectodomain, […] of […]; Homodimer held by a disulfide bond (non-reducing SDS-PAGE and crystal structure); Cloned into pET-21a; also called extracellular domain of CTLA-4"}}, "target": "the molecule itself", "assay": "crystal structure; ipilimumab-scFv/CTLA-4 complex, 10 mg/mL, sitting drop, 18°C, 100 mM BICINE, 10% PEG 20000, 2% 1,4-Dioxane, pH 9.0; molecular replacement"}
{"protein": "B1", "values": [{"measurement": "stoichiometry N", "value": 2}]}
